About 1,200 (2.5%) of roughly 48,000 compounds were called active. Inconclusive results (about 2%) are left out.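 The calls were made as follows: active = activation of at least 60% and not above a set upper limit (about 1 call in 100 departs from these limits); inconclusive = activation of 40% to 60%, or above that upper limit; inactive = activation under 40%.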 The list shows a part of the results.
Target: Probable G-protein coupled receptor 32 (Homo sapiens) (UniProt O75388)
Test: qHTS for Agonists of Human Resolvin D1 Receptor DRV1; also: 0% is about no effect
Conditions: CHO-K1 GPR32 beta-arrestin PathHunter luminescence, 90 min; at 76.9 µM; stronger effect = higher value; zero percent set by DMSO-only wells
Summary of the method: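 Agonism was scored as beta-arrestin recruitment to ProLink-fused GPR32 in stably transfected CHO-K1 cells, giving a chemiluminescent beta-Gal signal; compounds were incubated 90 min at 37 °C.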

Sequence of UniProt O75388 (O75388 whole entry, looked up): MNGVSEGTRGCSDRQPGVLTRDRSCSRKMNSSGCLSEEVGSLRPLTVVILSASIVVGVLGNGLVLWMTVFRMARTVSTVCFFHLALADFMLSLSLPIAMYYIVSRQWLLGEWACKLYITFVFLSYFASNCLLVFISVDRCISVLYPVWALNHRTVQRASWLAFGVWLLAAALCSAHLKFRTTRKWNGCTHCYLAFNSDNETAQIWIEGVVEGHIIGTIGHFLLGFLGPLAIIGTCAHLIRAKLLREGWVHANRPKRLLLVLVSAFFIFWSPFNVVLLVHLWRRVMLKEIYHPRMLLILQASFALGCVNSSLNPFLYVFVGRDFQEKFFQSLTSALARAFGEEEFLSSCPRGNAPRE

activation, inactive:
CC(C)N(Cc1ccccc1)C(=O)CCS(=O)(=O)c1ccc2c(c1)oc(=O)n2C -2.8%, Cc1ccccc1CSc1ncc(CO)n1Cc1ccc(F)cc1 15.6%, CCOc1ccc(-c2cc(-c3nc(-c4ccc(OC)c(OC)c4)no3)[nH]n2)cc1 10.1%, CCN(C(=O)Cn1cnc2sc(C)c(S(=O)(=O)N3CCN(c4ncccn4)CC3)c2c1=O)c1ccccc1F 4.05%, CC(=O)c1ccc(NC(=O)CC(c2cccs2)N2Cc3ccccc3C2=O)cc1 (stereo unspecified) -6.81%, COc1ccc(Cc2nc3ccccc3n2Cc2ccccc2F)cc1 -11.5%, Cc1cc(Cl)ccc1OCC(=O)N(Cc1ccco1)Cc1ccco1 9.53%, COc1ccc(-c2cn3cccnc3n2)cc1NC(=O)c1cc(C)cc(C)c1 -6.85%, CCOC(=O)c1ccc(NC(=O)c2ccc(=O)n(Cc3cccc(C)c3)c2)cc1 16.8%, CC(O)CNc1nc2c(c(=O)n(Cc3ccc(Cl)cc3)c(=O)n2C)n1C (stereo unspecified) 45.8%, COc1ccc(CCNC(=O)CCc2c(C)c3cc4c(C)coc4c(C)c3oc2=O)cc1OC -9.3%, COc1ccc(-c2nnc(C3CCN(S(=O)(=O)c4ccc(C)c(C)c4)CC3)o2)cc1 -6.66%, Cc1ccc(-n2ncc(C(=O)N3CCN(c4ccc(Cl)cc4)CC3)c2C2CCN(C(=O)OC(C)(C)C)CC2)c(C)c1 35.9%, Cc1cc2c(cc1S(=O)(=O)CCC(=O)NCCc1ccccc1)OCC(=O)N2 -23.3%, CCC1CN(C(=O)Nc2ccc(C)c(F)c2)c2ccccc2S1 (stereo unspecified) -18.6%, Cc1ccc(NC(=O)CN2CCSc3ccc(S(=O)(=O)N4CCCC4)cc32)cc1C 3.04%, O=C1CN(C(=O)c2ccc(S(=O)(=O)N3CCCC3)cc2)C(c2ccccc2)c2cc(Br)ccc2N1 (stereo unspecified) -15.8%, CCOc1ccc(-n2nc3cc(C)c(NC(=O)c4cc(OCC)c(OCC)c(OCC)c4)cc3n2)cc1 12%, COc1cc(OC)c(NS(=O)(=O)c2cc(-c3cnc(C4CC4)o3)ccc2C)cc1Cl -6.97%, Cc1nnc(N2CCC(C(=O)NCCc3ccccc3)CC2)c2nn(-c3ccc(Cl)cc3)c(C)c12 -5.65%, CC(C)(C)C(=O)NC1(C(F)(F)F)C(=O)Nc2c1c(=O)[nH]c(=O)n2-c1ccccc1 (stereo unspecified) -5.37%, O=C(CSc1nnc(-c2ccc([N+](=O)[O-])cc2)o1)Nc1ccccc1 -43.2%, COc1cc(NC(=O)Cn2c(=O)n(Cc3ccco3)c(=O)c3oc4ccccc4c32)cc(OC)c1 -27.7%, Cc1ccc(-c2nc(Cn3c(=O)cc(-c4ccccc4)c4c(C)nn(C)c43)c(C)o2)cc1 12%, Cc1cc(C)cc(NS(=O)(=O)c2ccc3[nH]cc(C(=O)NCc4ccccc4Cl)c(=O)c3c2)c1 -13.2%, CCOc1ccc(C(=O)N2CCC(c3noc(-c4ccc(S(=O)(=O)N5CCCC5)cc4)n3)CC2)cc1 -26%, CN(C1CCCCC1)S(=O)(=O)c1ccc2c(c1)c(=O)c(C(=O)N1CCN(c3ccccc3F)CC1)cn2C -2.99%, CCc1c(-c2ccccc2)nc2ccccc2c1C(=O)NCc1ccc(C)cc1 -24.9%, Cc1ccc(OCCn2nnc3sc4c(c3c2=O)CCC(C)C4)cc1 (stereo unspecified) 13.9%, Cn1cnc(S(=O)(=O)N2CCC(C(=O)N3CCN(c4ccccc4F)CC3)CC2)c1 -5.34%, CCOc1ccc(NC(=O)c2cc(=O)c3ccc(C)c(C)c3o2)cc1 -1.71%, CSc1cccc(NS(=O)(=O)c2cn(C)c(C)n2)c1 -6.5%, CCOc1ccc2c(c1)NC(c1cccs1)=NC(c1ccc(F)cc1)=N2 -34%, O=C1CSC2(C(=O)N(Cc3ccccc3)c3ccccc32)N1c1ccc(Cl)cc1 (stereo unspecified) -21.7%, COc1ccc(C2C(C(=O)Nc3ccc(C)cc3C)=C(C)Nc3nc4ccccc4n32)c(OC)c1 (stereo unspecified) -18.2%, COc1ccc2occ(CC(=O)Nc3ccc(S(=O)(=O)Nc4nc(C)cc(C)n4)cc3)c2c1 -7.49%, COc1ccc(N2CCN(c3nc4ccc(C)cc4n4nnnc34)CC2)cc1 -6.35%, O=C(Nc1ccc(Br)cc1F)N1CCC2(CC1)Oc1ccccc1C(=O)N2Cc1ccccc1F -25.7%, CCN(c1ccccc1)c1nnc(NC(=O)Nc2ccc(Br)cc2F)s1 0.55%, CC(C)(C)c1ccc(C(=O)N2CCCCC2CCN2CCCCC2)cc1 (stereo unspecified) 6.13%, COC(=O)c1cc(NC(=O)Cn2nc(-c3ccc(C)c(C)c3)ccc2=O)cc(C(=O)OC)c1 -3.51%, CCC(C)NC(=O)C1=CC(c2ccc3c(c2)OCO3)=NS(=O)(=O)N1C (stereo unspecified) -3.06%, COc1ccc2c(c1)cc1c(=O)n(CC(=O)NCCCc3ccccc3)nc(C)n12 -18.4%, COC(=O)c1ccc(Cn2nnc3c(=O)[nH]c(C4CCCN(S(=O)(=O)c5cccc(Cl)c5)C4)nc32)cc1 (stereo unspecified) -7.72%, O=C(CN1C(=O)COc2ccc(S(=O)(=O)Nc3ccccc3)cc21)Nc1cccc(Cl)c1 41.5%, COc1cccc2c1Oc1ncccc1N(C(=O)CCC(=O)NCc1ccccc1Cl)C2 -0.258%, Cc1ccc2nc(CNC(=O)c3ccccc3)[nH]c2c1 4.42%, Cc1cccn2c(=O)c(C(=O)NCCc3ccccc3)c(O)nc12 5.96%, COc1ccc(CCNC(=O)C(=O)NCC(c2ccc3c(c2)OCO3)N2CCOCC2)cc1OC (stereo unspecified) -14%, Cc1cccc(-c2noc(CSc3nc(-c4ccc(F)cc4)cc(=O)[nH]3)n2)c1 -5.26%, CCOc1ccc(NC(=O)c2oc3ccccc3c2NC(=O)c2c(F)cccc2F)cc1 -5.87%, COc1ccccc1N1CCN(C(=O)CSc2nc3ccccc3nc2Cc2ccccc2)CC1 -1.63%, COc1cccc(-n2ccn(CC(=O)c3ccc(F)cc3)c(=O)c2=O)c1 -2.4%, CCOc1ccc(NC(=O)C2CCCN(S(=O)(=O)c3ccc4[nH]c(=O)ccc4c3)C2)cc1 (stereo unspecified) 5.43%, Cc1ccc(NC(=O)C(=O)c2cc(C)n(-c3ccc(F)cc3)c2C)cc1C -8.88%, CCCN(CCC)S(=O)(=O)c1ccc2c(c1)N(CC(=O)NC(C)c1ccccc1)C(=O)CS2 (stereo unspecified) -24.3%, COc1ccc(CNC(=O)c2cc(Nc3ccc(C)cc3C)nc3ccccc23)cc1 20.3%, Cc1ccc(CSC2=Nc3ccccc3C3=NC(CC(=O)NC4CCCCC4)C(=O)N23)cc1 (stereo unspecified) 2.32%, COc1ccccc1N1CCN(C(=O)c2cc(-c3ccc(F)cc3)on2)CC1 -4.03%, CCN(c1cccc(C)c1)S(=O)(=O)c1nnc(NC(=O)c2ccccc2Cl)s1 7.62%, Cc1ccc2nc(-c3ccc(NC(=O)COc4ccccc4)cc3)sc2c1 -13.5%, CC(=O)c1ccc(N2C(=O)N(CC(=O)c3ccc(C)cc3)c3ccccc3S2(=O)=O)cc1 -2.1%, CCn1c(C(=O)N2CCCC(C(=O)N3CCN(c4cc(C)ccc4C)CC3)C2)cc2sccc21 (stereo unspecified) -3.65%, CCN(CC)c1ccc(NC(=O)c2sc3nc4c(cc3c2N)CN(C)CC4)cc1 -17.8%, Cc1ccc(CCNC(=O)CCS(=O)(=O)c2cc3c(cc2C)NC(=O)CO3)cc1 -11.2%, Cc1nncn1-c1ccc(C(=O)Nc2cc(F)ccc2F)cc1 7.14%, O=C(Nc1ccc2nc(SCC(=O)N3CCc4ccccc43)sc2c1)c1cccc(Cl)c1 -5.8%, COc1cc(OC)c(OC)cc1CNc1sc2c(c1C(=O)Nc1ccccc1OC)CCC2 -8.36%, CN(C(=O)CCS(=O)(=O)c1cc2c(cc1Cl)NC(=O)CO2)C1CCCCC1 -3.7%, CCn1c(=N)c(C(=O)NC2CCCCC2)cc2c(=O)n3cc(C)ccc3nc21 5.32%, COc1ccc(NC(=O)CSc2nc3nc(C)c(Cc4ccccc4Cl)c(C)n3n2)cc1OC -20.3%, COc1ccc(C)cc1NS(=O)(=O)c1cc2c3c(c1)CC(=O)N3CCC2 -13.2%, COc1cc2c(cc1OC)C(COc1cc(C)cc(C)c1)N(C(=O)COc1ccccc1)CC2 (stereo unspecified) -2.21%, COc1ccc(Cl)cc1NC(=O)CCCN1C(=O)C(c2ccccc2)Oc2cccnc21 (stereo unspecified) -11.1%, COc1ccc(NC(=O)c2cc3c(=O)n(Cc4cccnc4)ccc3nc2C)cc1OC 13.8%, Cc1ccccc1CCNC(=O)c1cc2cc(S(=O)(=O)N3CCCCC3)ccc2n1C -17.3%, COc1ccc(-n2c(=O)c3ccccc3n(CC(=O)NCCc3ccc(OC)c(OC)c3)c2=O)cc1 3.87%, CCOCCCN(Cc1ccco1)S(=O)(=O)c1cc2c(cc1C)NC(=O)CO2 -11.7%, COc1ccc(-n2ncc(C(=O)Nc3cccc(C(F)(F)F)c3)c2C2CCN(C(=O)OC(C)(C)C)CC2)cc1 -9.62%, COc1ccc(N2Cc3cccc(C(=O)Nc4ccc(F)cc4)c3C2=O)cc1 -2.7%, Cc1ccc(C2=Nc3ccccc3N(CC(=O)NCc3ccccc3Cl)C(=O)C2)cc1C -9.52%

— PubChem BioAssay AID1346428 (National Center for Advancing Translational Sciences (NCATS), 2018)
